{"source": "the supplement of paper PMC8728848", "binders": {"B1": {"name": "Gal 3 (Canis lupus) (protein)", "chain": "MADSFSLNDALSGSGNPNPQGWPGPWGNQPAGAGGYPGASYPGAYPGQAPPGGYPGQAPPGGYPGQAPPGGYPGQAPPGGYPGQAPPGGYPGQAPPGTYPGPTAPAYPGPTAPGTQPGQPSGPGAYPPPGQPSAPGAYPAAGPFGIPAGPLTVPYDLPLPGGVKPRMLITILGTVRPSANRLALDFKRGNDVAFHFNPRFNEDNKRVIVCNTKLDNIWGKEERQAAFPFESGKPFKIQVLVESDHFKVAVNDAHLLQYNHRMKNLPEISKLGISGDIDLTSASYAMI"}}, "assay_in_all_cases": "glycan array binding signal (z-score within array); higher = stronger binding", "conditions_in_all_cases": "glycan notation: IUPAC condensed, linker removed", "key": {"[1]": {"target": "Fuc(a1-2)Gal(b1-4)[Fuc(a1-3)]GlcNAc(b1-2)[Fuc(a1-2)Gal(b1-4)[Fuc(a1-3)]GlcNAc(b1-4)]Man(a1-3)[Fuc(a1-2)Gal(b1-4)[Fuc(a1-3)]GlcNAc(b1-2)Man(a1-6)]Man(b1-4)GlcNAc(b1-4)GlcNAc", "how_it_was_run": "(§1)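 Glycan array binding is given as a within-array Z-score, which can be read as non-binding when negative. The arrays, 3228 of them, came from the Consortium for Functional Glycomics database and were retained only where the protein sequence was available. Z-scores were averaged across arrays of the same protein sequence at different concentrations or buffers and across linkers.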"}, "[2]": {"target": "Fuc(a1-2)Gal(b1-4)[Fuc(a1-3)]GlcNAc(b1-3)Gal(b1-4)[Fuc(a1-3)]GlcNAc", "how_it_was_run": "as §1"}, "[3]": {"target": "Fuc(a1-2)Gal(b1-4)[Fuc(a1-3)]GlcNAc(b1-3)Gal(b1-4)[Fuc(a1-3)]GlcNAc(b1-3)Gal(b1-4)[Fuc(a1-3)]GlcNAc", "how_it_was_run": "as §1"}, "[4]": {"target": "Fuc(a1-2)Gal(b1-4)[Fuc(a1-3)]GlcNAc(b1-3)GalNAc", "how_it_was_run": "as §1"}, "Fuc(a1-2)Gal6S(b1-4)Glc": {"target": "Fuc(a1-2)Gal6S(b1-4)Glc", "how_it_was_run": "as §1"}, "[5]": {"target": "Fuc(a1-2)Gal6S(b1-4)Glc6S", "how_it_was_run": "as §1"}, "[6]": {"target": "Fuc(a1-2)Gal6S(b1-4)GlcNAc", "how_it_was_run": "as §1"}, "Fuc(a1-2)[Gal(a1-3)]Gal": {"target": "Fuc(a1-2)[Gal(a1-3)]Gal", "how_it_was_run": "as §1"}, "[7]": {"target": "Fuc(a1-2)[Gal(a1-3)]Gal(b1-3)GlcNAc", "how_it_was_run": "as §1"}, "[8]": {"target": "Fuc(a1-2)[Gal(a1-3)]Gal(b1-3)GlcNAc(b1-2)Man(a1-3)[Fuc(a1-2)[Gal(a1-3)]Gal(b1-3)GlcNAc(b1-2)Man(a1-6)]Man(b1-4)GlcNAc(b1-4)GlcNAc", "how_it_was_run": "as §1"}, "[9]": {"target": "Fuc(a1-2)[Gal(a1-3)]Gal(b1-3)GlcNAc(b1-3)GalNAc", "how_it_was_run": "as §1"}, "[10]": {"target": "Fuc(a1-2)[Gal(a1-3)]Gal(b1-4)Glc", "how_it_was_run": "as §1"}, "[11]": {"target": "Fuc(a1-2)[Gal(a1-3)]Gal(b1-4)GlcNAc", "how_it_was_run": "as §1"}, "[12]": {"target": "Fuc(a1-2)[Gal(a1-3)]Gal(b1-4)GlcNAc(b1-2)Man(a1-3)[Fuc(a1-2)[Gal(a1-3)]Gal(b1-4)GlcNAc(b1-2)Man(a1-6)]Man(b1-4)GlcNAc(b1-4)GlcNAc", "how_it_was_run": "as §1"}, "[13]": {"target": "Fuc(a1-2)[Gal(a1-3)]Gal(b1-4)GlcNAc(b1-2)Man(a1-3)[Fuc(a1-2)[Gal(a1-3)]Gal(b1-4)GlcNAc(b1-2)Man(a1-6)]Man(b1-4)GlcNAc(b1-4)[Fuc(a1-6)]GlcNAc", "how_it_was_run": "as §1"}, "[14]": {"target": "Fuc(a1-2)[Gal(a1-3)]Gal(b1-4)GlcNAc(b1-3)GalNAc", "how_it_was_run": "as §1"}, "[15]": {"target": "Fuc(a1-2)[Gal(a1-3)]Gal(b1-4)[Fuc(a1-3)]Glc", "how_it_was_run": "as §1"}, "[16]": {"target": "Fuc(a1-2)[Gal(a1-3)]Gal(b1-4)[Fuc(a1-3)]GlcNAc", "how_it_was_run": "as §1"}, "[17]": {"target": "Fuc(a1-2)[Gal(a1-3)]Gal(b1-4)[Fuc(a1-3)]GlcNAc(b1-3)GalNAc", "how_it_was_run": "as §1"}, "[18]": {"target": "Fuc(a1-2)[Gal(a1-4)]Gal(b1-4)GlcNAc", "how_it_was_run": "as §1"}, "[19]": {"target": "Fuc(a1-2)[GalNAc(a1-3)]Gal", "how_it_was_run": "as §1"}, "[20]": {"target": "Fuc(a1-2)[GalNAc(a1-3)]Gal(b1-3)GalNAc(a1-3)[Fuc(a1-2)]Gal(b1-4)GlcNAc", "how_it_was_run": "as §1"}, "[21]": {"target": "Fuc(a1-2)[GalNAc(a1-3)]Gal(b1-3)GlcNAc", "how_it_was_run": "as §1"}, "[22]": {"target": "Fuc(a1-2)[GalNAc(a1-3)]Gal(b1-3)GlcNAc(b1-2)Man(a1-3)[Fuc(a1-2)[GalNAc(a1-3)]Gal(b1-3)GlcNAc(b1-2)Man(a1-6)]Man(b1-4)GlcNAc(b1-4)GlcNAc", "how_it_was_run": "as §1"}, "[23]": {"target": "Fuc(a1-2)[GalNAc(a1-3)]Gal(b1-3)GlcNAc(b1-3)GalNAc", "how_it_was_run": "as §1"}, "[24]": {"target": "Fuc(a1-2)[GalNAc(a1-3)]Gal(b1-4)Glc", "how_it_was_run": "as §1"}, "[25]": {"target": "Fuc(a1-2)[GalNAc(a1-3)]Gal(b1-4)GlcNAc", "how_it_was_run": "as §1"}, "[26]": {"target": "Fuc(a1-2)[GalNAc(a1-3)]Gal(b1-4)GlcNAc(b1-2)Man(a1-3)[Fuc(a1-2)[GalNAc(a1-3)]Gal(b1-4)GlcNAc(b1-2)Man(a1-6)]Man(b1-4)GlcNAc(b1-4)GlcNAc", "how_it_was_run": "as §1"}, "[27]": {"target": "Fuc(a1-2)[GalNAc(a1-3)]Gal(b1-4)GlcNAc(b1-3)Gal(b1-4)GlcNAc", "how_it_was_run": "as §1"}, "[28]": {"target": "Fuc(a1-2)[GalNAc(a1-3)]Gal(b1-4)GlcNAc(b1-3)Gal(b1-4)GlcNAc(b1-3)Gal(b1-4)GlcNAc", "how_it_was_run": "as §1"}}, "note": "Some of the results follow."}
{"binder": "B1", "values": [{"measurement": "glycan array binding signal (z-score)", "setting": "[1]", "result": -0.147}, {"measurement": "glycan array binding signal (z-score)", "setting": "[2]", "result": -0.263}, {"measurement": "glycan array binding signal (z-score)", "setting": "[3]", "result": -0.223}, {"measurement": "glycan array binding signal (z-score)", "setting": "[4]", "result": -0.133}, {"measurement": "glycan array binding signal (z-score)", "setting": "Fuc(a1-2)Gal6S(b1-4)Glc", "result": -0.251}, {"measurement": "glycan array binding signal (z-score)", "setting": "[5]", "result": -0.253}, {"measurement": "glycan array binding signal (z-score)", "setting": "[6]", "result": -0.254}, {"measurement": "glycan array binding signal (z-score)", "setting": "Fuc(a1-2)[Gal(a1-3)]Gal", "result": -0.254}, {"measurement": "glycan array binding signal (z-score)", "setting": "[7]", "result": 0.998}, {"measurement": "glycan array binding signal (z-score)", "setting": "[8]", "result": 1.08}, {"measurement": "glycan array binding signal (z-score)", "setting": "[9]", "result": -0.147}, {"measurement": "glycan array binding signal (z-score)", "setting": "[10]", "result": -0.07}, {"measurement": "glycan array binding signal (z-score)", "setting": "[11]", "result": 2.33}, {"measurement": "glycan array binding signal (z-score)", "setting": "[12]", "result": 7.41}, {"measurement": "glycan array binding signal (z-score)", "setting": "[13]", "result": 4.22}, {"measurement": "glycan array binding signal (z-score)", "setting": "[14]", "result": 0}, {"measurement": "glycan array binding signal (z-score)", "setting": "[15]", "result": -0.118}, {"measurement": "glycan array binding signal (z-score)", "setting": "[16]", "result": -0.239}, {"measurement": "glycan array binding signal (z-score)", "setting": "[17]", "result": -0.139}, {"measurement": "glycan array binding signal (z-score)", "setting": "[18]", "result": -0.236}, {"measurement": "glycan array binding signal (z-score)", "setting": "[19]", "result": -0.268}, {"measurement": "glycan array binding signal (z-score)", "setting": "[20]", "result": -0.004}, {"measurement": "glycan array binding signal (z-score)", "setting": "[21]", "result": 0.32}, {"measurement": "glycan array binding signal (z-score)", "setting": "[22]", "result": 0.406}, {"measurement": "glycan array binding signal (z-score)", "setting": "[23]", "result": -0.152}, {"measurement": "glycan array binding signal (z-score)", "setting": "[24]", "result": 0.168}, {"measurement": "glycan array binding signal (z-score)", "setting": "[25]", "result": 1.64}, {"measurement": "glycan array binding signal (z-score)", "setting": "[26]", "result": 7.54}, {"measurement": "glycan array binding signal (z-score)", "setting": "[27]", "result": 5.05}, {"measurement": "glycan array binding signal (z-score)", "setting": "[28]", "result": 5.42}]}
